Reference: PubChem BioAssay AID1476 (National Center for Advancing Translational Sciences (NCATS), 2009)
In all, about 200,000 compounds went through this assay and about 4,500 (2.2%) were called active. Inconclusive means that the source gave no clear call. Such entries were picked first, then a sample of the others. Calls follow the shape of the dose curve; as a rule, active = well fitted inhibition curve with a large enough effect; inconclusive = small, poorly fitted or top-dose-only effect, or effect the other way; inactive = flat fitted curve, though single readings scatter. Potencies of inconclusive entries are doubtful fits and often do not repeat.

Molecular target: Cruzipain (Trypanosoma cruzi) (UniProt P25779)
Sequence of UniProt P25779 (P25779 whole entry, looked up): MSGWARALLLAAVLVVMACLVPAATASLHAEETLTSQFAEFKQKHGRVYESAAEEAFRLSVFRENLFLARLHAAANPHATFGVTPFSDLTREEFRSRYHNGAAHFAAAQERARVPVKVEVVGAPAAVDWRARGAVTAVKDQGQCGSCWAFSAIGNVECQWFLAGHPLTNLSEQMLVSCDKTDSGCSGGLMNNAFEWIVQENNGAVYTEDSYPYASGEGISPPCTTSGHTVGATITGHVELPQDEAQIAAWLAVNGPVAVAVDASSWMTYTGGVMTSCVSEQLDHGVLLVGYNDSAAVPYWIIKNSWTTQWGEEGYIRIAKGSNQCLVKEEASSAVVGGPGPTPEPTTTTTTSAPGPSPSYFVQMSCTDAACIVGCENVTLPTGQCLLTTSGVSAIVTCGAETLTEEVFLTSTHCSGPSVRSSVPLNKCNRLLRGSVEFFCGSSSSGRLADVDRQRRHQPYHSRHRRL
Experiment: qHTS Assay for Promiscuous and Specific Inhibitors of Cruzain (without detergent); also: nearly all actives have a fitted effect of over 40% in size;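 as to max response, negative = inhibition: plate controls were enzyme without inhibitor for no effect and buffer without enzyme for full effect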
Settings: purified cruzain, Z-FR-AMC fluorescence, no detergent
Outline: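 Purified cruzain at 1.5 nM, pre-incubated 15 min with compound at room temperature in 100 mM sodium acetate pH 5.5, 5 mM DTT, 0.00005% Triton X-100. Reaction started with 2 uM Z-FR-AMC; AMC fluorescence increase over 60 s gives rate.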
Potency is read from the fitted curve at half-maximal effect; tags tell the direction and shape of the fitted curve.

Row | Compound | Potency | max response, negative = inhibition
1 | Cc1onc(-c2ccccc2Cl)c1C(=O)Nc1nnc(-c2ccc(Cl)cc2Cl)s1 | inconclusive: 39.8 µM [inhibitor, single point] | 
2 | O=C(CC1N=C2c3ccccc3N=C(SCC(=O)Nc3ccc(F)cc3)N2C1=O)NCc1ccc2c(c1)OCO2 (stereo not drawn) |  | inactive: -2.84%
3 | COC(C)=O |  | inactive: 0.412%
4 | COc1ccc(C(=O)Nc2nc3n(n2)C(c2ccc(F)cc2)C=C(c2ccc(Cl)cc2)N3)cc1 (stereo not drawn) | inconclusive: 39.8 µM [activator, single point] | 
5 | COc1cc(NC(=O)O[C@@H]2C(=O)c3cc(Br)ccc3O[C@H]2c2ccc3c(c2)OCO3)cc(OC)c1OC |  | inactive: -22.4%
6 | Cc1ccc(N(C(C)C(=O)Nc2ccc(S(=O)(=O)N3CCOCC3)cc2)S(C)(=O)=O)cc1 (stereo not drawn) | inconclusive: 25.1 µM [activator, single point] | 
7 | Cc1ccccc1-n1c(=O)/c(=C\c2ccco2)s/c1=C(/C#N)C(=O)Nc1ccccc1 | inconclusive: 31.6 µM [inhibitor, partial curve, poor fit] | 
8 | CCc1ccccc1NS(=O)(=O)c1cc(Br)cc2c1N(C(=O)C1CC1)CC2 | inconclusive: 39.8 µM [inhibitor, single point] | 
9 | O=C(NCc1ccccc1)c1ccc2c(c1)nc1n2CCOC1 |  | inactive: 5.34%
10 | CCN(CC)CCCNC(=O)CN1C(=O)COc2ccc(S(=O)(=O)N3CCC(C)CC3)cc21 |  | inactive: -3.67%
11 | Cc1cc(N)c2ccccc2[n+]1CCCCCCCCCCCCCC[n+]1c(C)cc(N)c2ccccc21 | active: 20 µM | 
12 | Cc1ccc(S(=O)(=O)Nc2ccccc2C(=O)OC(C)C(=O)Nc2ccc3ccccc3c2)cc1[N+](=O)[O-] (stereo not drawn) | active: 7.94 µM | 
13 | O=C(Nc1ccccc1)Nc1ccc(Br)cc1F | inconclusive: 39.8 µM [inhibitor, single point] | 
14 | CCCCCn1c(=S)[nH]c2ncccc2c1=O | inconclusive: 31.6 µM [inhibitor, single point] | 
15 | CCOc1ccc(S(=O)(=O)c2c(C(=O)c3ccccc3)cnc3cc4c(cc23)OCCO4)cc1 | active: 31.6 µM | 
16 | Cc1ccccc1C(=O)NC(=S)Nc1sc2c(c1C#N)CCCC2 | inconclusive: 31.6 µM [inhibitor, single point] | 
17 | Cc1csc(N(C(=O)c2cccc(S(=O)(=O)N3CCCC3)c2)c2ccccc2)n1 | inconclusive: 39.8 µM [activator, single point] | 
18 | O=C(Nc1ccc(Cl)cc1)OCc1cn(-c2ccc(Cl)cc2)nn1 | inconclusive: 39.8 µM [inhibitor, single point] | 
19 | CC(C)c1cc(C(N)=O)c(NC(=O)c2cccc(COc3ccc(Cl)cc3)c2)s1 | active: 20 µM | 
20 | CCOc1ccc(NC(=O)CN2CCSc3ccc(S(=O)(=O)N4CCCC4)cc32)cc1 |  | inactive: -1.55%
21 | Cc1cc(C)cc(N(CC(=O)NCc2ccccc2Cl)S(=O)(=O)c2c(C)[nH]c(=O)[nH]c2=O)c1 | inconclusive: 31.6 µM [activator, single point] | 

Row | Compound | Potency | max response, negative = inhibition
22 | O=C(CSc1ncc2c(n1)-c1ccc(Cl)cc1N(Cc1ccccc1)S2(=O)=O)Nc1ccccc1C(F)(F)F | inconclusive: 5.01 µM [inhibitor, full curve, poor fit] | 
23 | CC(=O)Nc1c(C)nn(-c2ccccc2)c1N1CCC(C(=O)Nc2cccc(C(F)(F)F)c2)CC1 | inconclusive: 25.1 µM [activator, single point] | 
24 | CC(=O)Nc1ccc(C(=O)Nc2nc(-c3cc(C)n(Cc4ccccc4)c3C)cs2)cc1 | inconclusive: 15.8 µM [inhibitor, partial curve] | 
25 | COc1ccc(CCNC(=O)Cn2c(=O)c3cccn3c3ccccc32)cc1OC | inconclusive: 25.1 µM [inhibitor, single point] | 
26 | N#Cc1c(N)nc(SCC(=O)NCCc2ccccc2)c(C#N)c1-c1cccs1 | inconclusive: 39.8 µM [inhibitor, single point] | 
27 | Cc1ccc(NC(=O)[C@@H](c2ccccc2)N2Cc3ccccc3C2=O)cc1F |  | inactive: 0.832%
28 | O=C(c1ccc2c(c1)[nH]c(=S)n1c3ccccc3nc21)N1CCN(c2ncccn2)CC1 | inconclusive: 12.6 µM [inhibitor, partial curve] | 
29 | Nc1c(C(=O)NC2CCCCC2)c2nc3ccccc3nc2n1/N=C/c1ccco1 | inconclusive: 31.6 µM [activator, single point] | 
30 | Clc1ccc(-c2cn3c(n2)-c2ccccc2C3)cc1Cl | inconclusive: 31.6 µM [inhibitor, single point] | 
31 | COc1ccc(/C=N/NS(=O)(=O)c2ccc(C)cc2)cc1OC(=O)c1ccccc1 | inconclusive: 39.8 µM [inhibitor, single point] | 
32 | Cc1nc2c(c(C)nn2C(C)(C)C)c(C)c1CCC(=O)Nc1ccc(Br)cc1Br |  | inactive: 14.3%
33 | Cc1ccc(NS(=O)(=O)c2c(C)nc3sc(C)cn3c2=O)c(C)c1 |  | inactive: -1.24%
34 | Cc1ccc(S(=O)(=O)c2nnn3c2nc(N2CCC(C(N)=O)CC2)c2cc(Cl)ccc23)cc1C | inconclusive: 20 µM [activator, partial curve] | 
35 | CSc1nc(SCC(=O)NC(c2ccccc2)c2ccccc2)c2c3c(sc2n1)CN(C)CC3 | inconclusive: 39.8 µM [inhibitor, single point] | 
36 | COc1ccc(CC(=O)NNc2ncnc3c2cnn3C)cc1 | inconclusive: 6.31 µM [activator, single point] | 
37 | COc1cccc(N2CCN(C(=O)CN(c3ccc(C)cc3)S(=O)(=O)c3c(C)n[nH]c3C)CC2)c1 | inconclusive: 25.1 µM [activator, partial curve] | 
38 | CCOc1cc(C2NN=C(c3ccccc3)S2)ccc1OCc1ccc(F)cc1 (stereo not drawn) | inconclusive: 10 µM [inhibitor, partial curve, poor fit] | 
39 | Cn1cccc1Cc1nnc(SCC(=O)NCc2ccco2)n1CCc1ccccc1 | inconclusive: 25.1 µM [activator, single point] | 
40 | Cc1cc(Cc2cc(C)cc(C(C)(C)C)c2O)c(O)c(Cc2cc(C)cc(C(C)(C)C)c2O)c1 | inconclusive: 3.16 µM [inhibitor, single point] | 
41 | O=C(Nc1nnc(SCc2ccccc2Cl)s1)c1cccc([N+](=O)[O-])c1 | inconclusive: 31.6 µM [inhibitor, single point] | 
42 | c1ccc(C(c2ccccc2)N2CCN(c3ccc4ccccc4n3)CC2)cc1 | inconclusive: 31.6 µM [inhibitor, single point] | 

Row | Compound | Potency | max response, negative = inhibition
43 | CCCN(CCC)C(=O)C1CCCN(c2ncnc3c2nc2n3CCCCC2)C1 (stereo not drawn) |  | inactive: 9.35%
44 | COc1cccc(Nc2ncc3nc(CCc4ccccc4)c(=O)n(Cc4cccs4)c3n2)c1 | active: 3.98 µM | 
45 | O=[N+]([O-])c1cccc(-c2ccc(C(=S)N3CCN(c4ccc(F)cc4)CC3)o2)c1 | active: 25.1 µM | 
46 | Cc1ccc(CN(C(=O)COc2ccc(C(C)C)cc2)C2CCS(=O)(=O)C2)o1 (stereo not drawn) | inconclusive: 31.6 µM [activator, single point] | 
47 | Cc1ccc(N=Cc2cc3c(cc2O)OC(N)=C(C#N)C3c2ccccc2)cc1 (stereo not drawn) | inconclusive: 31.6 µM [inhibitor, single point] | 
48 | O=C(NC(CC(=O)N1CCN(c2ccc([N+](=O)[O-])cc2)CC1)c1ccccc1)c1ccccc1Cl (stereo not drawn) | inconclusive: 39.8 µM [inhibitor, single point] | 
49 | Cc1ccc(S(=O)(=O)Nc2nc3ccccc3nc2N2CCc3ccccc3C2)cc1 | inconclusive: 39.8 µM [inhibitor, single point] | 
50 | O=C(Cc1ccc(F)cc1)N1CCC(c2nc3c(nnn3Cc3ccc(F)cc3)c(=O)[nH]2)CC1 | inconclusive: 39.8 µM [activator, single point] | 
51 | O=S(=O)(N/N=C\c1cn(-c2ccccc2)nc1-c1ccccc1)c1ccccc1 | inconclusive: 39.8 µM [inhibitor, single point] | 
52 | Cc1ccccc1C(=O)Nc1nnc(S(=O)(=O)N(C)Cc2ccc(Cl)cc2)s1 | inconclusive: 39.8 µM [inhibitor, single point] | 
53 | COc1ccc(-n2c(/C=C/c3cccc4ccccc34)nc3ccccc3c2=O)cc1Cl | inconclusive: 25.1 µM [inhibitor, single point] | 
54 | CCCCNc1nc(C)nc2c1nc(-c1ccccc1)n2CCCN1CCCCC1C (stereo not drawn) |  | inactive: -6.07%
55 | CCc1ccc(N2C(=O)Cc3c2nc(N)c(C#N)c3N)cc1 |  | inactive: 0.527%
56 | Cc1cccc(NS(=O)(=O)c2ccc3c(c2)Cc2cc(S(=O)(=O)Nc4cccc(C)c4C)ccc2-3)c1C | active: 3.98 µM | 
57 | CC(C)NC[C@@H](O)c1ccc(O)c2ncccc12 |  | inactive: 0.743%
58 | Cc1ccc(OCC(=O)Nc2ccc(N3CCCC3)cc2)cc1C | active: 2.51 µM | 
59 | COc1ccc(NC(=O)C(C)N2c3cccc4cccc(c34)S2(=O)=O)cc1OC (stereo not drawn) | inconclusive: 39.8 µM [activator, single point] | 
60 | O=C(CCSCc1ccccc1F)N1CCN(c2ccc(Cl)cc2)CC1 |  | inactive: 2.72%
61 | CN(Cc1ccccc1)c1nc(-c2cccc([N+](=O)[O-])c2)nc2ccccc12 | inconclusive: 25.1 µM [inhibitor, single point] | 
62 | COc1ccc(OC)c(CCNC(=O)CN2C(=O)COc3ccc(S(=O)(=O)N4CCC(C)CC4)cc32)c1 | inconclusive: 15.8 µM [activator, single point] | 
63 | COc1ccc(Cn2nnnc2CN2CCC(c3nc4ccccc4s3)CC2)cc1 | inconclusive: 25.1 µM [activator, single point] | 
